This note sets out measurements from PubChem BioAssay AID488969 (Vanderbilt High Throughput Screening Facility, 2010).

Whole data set: some 110,000 compounds, median “z-score” near -0.1, cut for the highest 2% near 2. The list shows a part of the results. Calls of active or inactive are those of the source.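 Rule for the calls: active = z-score in the third read window above 3 or below -3; inactive = the rest.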

This assay deals with Metabotropic glutamate receptor 8 (Rattus norvegicus) (UniProt P70579). The assay is described as follows: mGluR8 Gi/Go-coupled signaling modulation – cell-based, rat, thallium flux, HTS, primary screen (AID 488969). The conditions noted are these: HEK293 rat mGluR8, GIRK (G protein-gated inwardly rectifying potassium channel) thallium flux, FluoZin2; at 10 µM; stronger effect = higher value; submaximal glutamate (EC20) added with thallium.
UniProt P70579, sequence (P70579 whole entry, looked up): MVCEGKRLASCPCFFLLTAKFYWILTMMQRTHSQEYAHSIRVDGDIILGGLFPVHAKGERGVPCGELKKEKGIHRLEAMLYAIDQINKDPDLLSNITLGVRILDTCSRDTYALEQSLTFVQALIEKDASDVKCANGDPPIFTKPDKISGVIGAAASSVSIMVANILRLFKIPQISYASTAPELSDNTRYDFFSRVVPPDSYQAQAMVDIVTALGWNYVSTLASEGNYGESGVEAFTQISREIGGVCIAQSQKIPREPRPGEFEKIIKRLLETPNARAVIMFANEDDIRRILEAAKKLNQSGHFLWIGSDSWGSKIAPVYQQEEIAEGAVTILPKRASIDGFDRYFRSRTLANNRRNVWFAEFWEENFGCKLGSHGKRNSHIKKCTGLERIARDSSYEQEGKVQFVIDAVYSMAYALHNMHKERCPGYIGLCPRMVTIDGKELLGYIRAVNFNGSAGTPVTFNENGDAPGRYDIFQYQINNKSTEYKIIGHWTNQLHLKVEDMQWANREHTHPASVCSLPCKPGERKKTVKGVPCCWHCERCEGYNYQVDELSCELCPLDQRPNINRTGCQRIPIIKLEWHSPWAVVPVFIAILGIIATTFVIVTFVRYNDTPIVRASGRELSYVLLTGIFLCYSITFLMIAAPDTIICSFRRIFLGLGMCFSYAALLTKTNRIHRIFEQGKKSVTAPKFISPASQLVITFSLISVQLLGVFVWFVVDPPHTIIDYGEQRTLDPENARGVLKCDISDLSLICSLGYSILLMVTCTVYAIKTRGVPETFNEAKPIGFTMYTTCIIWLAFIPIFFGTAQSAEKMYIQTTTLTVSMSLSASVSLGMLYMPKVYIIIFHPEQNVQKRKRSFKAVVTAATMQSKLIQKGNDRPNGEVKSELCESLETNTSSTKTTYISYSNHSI
As for `C=CCn1cc(C(=O)NCC2CCCO2)c(=O)c2cc(S(=O)(=O)N3CCCCCC3)ccc21` (stereo not drawn), the z-score is -0.544. The value for `COc1ccc(-n2cnnc2SCC(=O)NCc2cccs2)cc1` was -0.126; that for `COc1ccc(C2C(C(=O)C(C)(C)C)=C(O)C(=O)N2Cc2ccccc2)cc1` (stereo not drawn) was -0.0256. For the compound `Cc1ccc(-c2nc(CS(=O)CC(=O)NC3CCC(C)CC3)c(C)o2)cc1` (stereo not drawn), the z-score is -0.41. On to `COc1ccc(C2(C(=O)NCc3ccco3)CCCC2)cc1OC`, for which the z-score is 0.0332. For the compound `CCCCN(CCCC)CCCNC(=O)C12CN(Cc3ccccc3)CC1C(c1cccc([N+](=O)[O-])c1)=NO2` (stereo not drawn), the z-score was found to be 1.81.

As to `CC/C(CC(C)(C)c1ccccc1)=N\O`, the z-score was found to be 0.387. For `CC(C)(C)c1ccc(SCC(N)=O)cc1`, the z-score was active: -4.39. Take `COC(=O)CCCNS(=O)(=O)c1ccc2ccccc2c1`: the z-score worked out at 0.264. Compound `Cc1nc(NC(=S)NC(=O)COc2ccc(Cl)cc2)ccc1Br` registered a z-score of 0.641.

On to `COc1c(F)c(F)c(C(=O)O)c(Nc2ccccc2)c1F`, for which the z-score was -0.109. `CC(C)(C)c1ccc(C(=O)CSc2ncn[nH]2)cc1` registered a z-score of 0.169. `Cc1nn2c(Nc3ccc(F)cc3)c3c(nc2c1-c1ccccc1)CCC3`: the z-score came to 0.0107.

For the compound `O=C(O)c1cccc(NS(=O)(=O)c2cccc3cccnc23)c1`, the z-score is -0.0996. The value for `CCOc1ccc(-c2nnc3ccc(SCC(=O)Nc4nc5ccc(C)cc5s4)nn23)cc1` was -0.458.

`C=CCn1c(SC2CCOC2=O)nc2sc(C)c(C)c2c1=O` (stereo not drawn) had a z-score of -0.995. `CC(NS(=O)(=O)c1ccc(Cl)cc1)C(=O)NCc1ccco1` (stereo not drawn): the z-score is 0.0263.

Turning to `O=C(CC(NC(=O)C(F)(F)F)c1ccccc1)Nc1nnc(CCc2ccccc2)s1` (stereo not drawn), the z-score worked out at 0.45. Take `O=C(Nc1ccc2c(c1)OCCO2)C1CCCN(S(=O)(=O)c2cccc3nsnc23)C1` (stereo not drawn): the z-score amounted to 0.545. Under `CC(=O)N/C(=C\c1ccccc1)C(=O)OCC(=O)N(C)C1CCCCC1` stands -0.162.

In turn, `O=C(Nc1ncc2c(n1)-c1ccccc1CC2)c1ccc(F)cc1` came in with a z-score of -0.425. As for `COc1ccccc1/C=C1\S/C(=N/NC(=O)c2cccc(Br)c2)NC1=O`, the z-score is -0.812. Regarding `CC1Cc2ccccc2N1C(=O)CSc1nnc2c(n1)[nH]c1ccc(F)cc12` (stereo not drawn), the z-score is -0.327. `O=S(=O)(NCc1cccnc1)c1ccccc1` registered a z-score of -0.00631.

In turn, `CCc1ccc(C(=O)CN2C(=O)NC(C)(CCc3ccccc3)C2=O)cc1` (stereo not drawn) gave a z-score of -0.208. The compound `Cc1nn(Cc2ccccc2)c2c1C(c1ccccc1)C(C#N)=C(N)O2` (stereo not drawn) yielded a z-score of -0.684.

In the case of `O=C(/C=C/c1ccccc1)c1cc(Br)ccc(=O)c1O`, the z-score is active: 14.

As to `COCCNc1nnc(SC(C)C(=O)Nc2ccc(-c3nc4ccc(C)cc4s3)cc2)s1` (stereo not drawn), the z-score is -0.474. As to `CCCCN(CCCC)C(=S)NC(=O)c1ccccc1Cl`, the z-score is -0.755.

`CCOC(=O)C(NC(C)=O)C(=O)O` (stereo not drawn): the z-score was -0.0696. For `COc1ccc(C(=O)C(CCC(CNC(C)(C)C)C(=O)c2ccc(OC)cc2)CNC(C)(C)C)cc1` (stereo not drawn), the z-score amounted to 0.539.

For `Cc1ccc(S(=O)(=O)n2ccc(-c3cccc(OCc4c(F)cccc4Cl)c3)n2)cc1`, the z-score was -0.115. `c1ccc(CCNc2ncnc3c2cnn3-c2ccccc2)cc1` gave a z-score of -1.25. Compound `COc1ccc(CCN2CC34C=CC(O3)C(C(=O)NCc3ccccc3Cl)C4C2=O)cc1OC` (stereo not drawn) registered a z-score of 0.725. On to `CCCNc1nc2c(c(=O)[nH]c(=O)n2C)n1Cc1ccc(F)cc1`, for which the z-score was -0.0935.

On to `COC(=O)c1ccc(/C=N/NC(=O)c2cccc(F)c2)cc1`, for which the z-score was -0.403. The value for `CC(O)(CS(=O)(=O)Cc1ccccc1)C(=O)Nc1cccc(C(F)(F)F)c1` (stereo not drawn) was -0.0049; that for `Cc1ccc(S(=O)(=O)N2CCC(C(=O)N[C@H](C(=O)NCC3CCCO3)C(C)C)CC2)cc1` (stereo partly drawn) was -0.153.

`CC(Sc1nc(-c2ccccc2)cc(C(F)(F)F)n1)C(=O)Nc1sc2c(c1C(N)=O)CCC2` (stereo not drawn) came in with a z-score of -0.359. The compound `COC(=O)c1ccc2nc(NC(=O)COC(=O)CSc3nc(C)cc(C)n3)sc2c1` came in with a z-score of -0.153.

For `Cc1nnc(NC(=O)c2ccccc2C(=O)O)s1`, the z-score was -0.105. Take `CCC(C)NCCCOc1cc(Cl)ccc1Cl` (stereo not drawn): the z-score was 0.511. `Cc1ccc(C)c(-c2nn(-c3cc(N4CCN(CCO)CC4)ccc3[N+](=O)[O-])c(=O)c3ccccc23)c1` yielded a z-score of -0.175.

The compound `CC1CC2(CC(C)(C(=O)CSc3nc4ccccc4s3)OC2=O)C(=O)O1` (stereo not drawn) yielded a z-score of 0.537. In turn, `O=c1c2ccccc2nc(N/N=C/c2c(O)ccc3ccccc23)n1O` displayed a z-score of 0.298. Under `COc1cc(C2C3C(=O)N(c4ccccc4)C(=O)C3ON2c2ccccc2)cc(OC)c1OC` (stereo not drawn) stands -0.0506; under `CC(=O)c1ccc(N(C(=O)Cn2nnc3ccccc32)C(C(=O)NCc2ccccc2)c2ccccn2)cc1` (stereo not drawn), 0.131; under `Cc1ccc(S(=O)(=O)N(C)c2ccc(NS(C)(=O)=O)cc2)cc1`, -0.379. For `Cc1cc(Cl)cc(C)c1OCCCCN1CCOCC1`, the z-score was determined as 0.224. `C=CCNC(=O)COc1cc(C)ccc1C`: the z-score was -0.198. Under `CN(C)S(=O)(=O)N1CCN(C(=O)N(c2ccccc2)c2ccccc2)CC1` stands -0.395; under `O=C(CC(=O)NC1CCCCC1)N/N=C/c1cccc2ccccc12`, -0.294.

Consider `NNC(=O)CNC(=O)c1ccccc1F`, for which the z-score is -0.108. For the compound `CCOC(=O)C1=C(C)N(C)C(C)=C(C(=O)OCC)C1c1ccccn1`, the z-score was determined as 0.692. On to `Cc1cccc(C)c1NC(=O)C(NC=O)c1ccc(Cl)cc1` (stereo not drawn), for which the z-score is -0.0871.

On to `Cc1ccc(S(=O)(=O)N(C)C)cc1-n1c(SCC(=O)Nc2ccccc2)nc2ccccc2c1=O`, for which the z-score turned out to be 0.0533. In turn, `COC(=O)c1ccc(C2NC(=S)N(c3ccccc3)C(C)=C2C(=O)Nc2ccccc2OC)cc1` (stereo not drawn) showed a z-score of -0.483. `CCn1cc(C(=O)NCc2ccco2)c(=O)c2cc(S(=O)(=O)N3CC(C)CC(C)C3)ccc21` (stereo not drawn): the z-score is -0.0472. Compound `COc1cccc(-c2nc(CS(=O)(=O)CC(=O)NC3CCCc4ccccc43)c(C)o2)c1` (stereo not drawn) gave a z-score of 0.0233. With `COCC(=O)NC1CCN(CC(=O)Nc2ccc(OC)cc2[N+](=O)[O-])CC1`, the z-score is -0.121. As for `O=C(N/N=C/c1ccco1)C1CC1`, the z-score stood at 0.84. Consider `Cc1cc(C)c2nc3s/c(=C/c4ccccc4)c(=O)n3c2c1`, for which the z-score is -0.0939. The value for `O=C1CCCC2=C1C(O)(C(F)(F)F)C(=O)N2Cc1ccccc1` (stereo not drawn) was 0.265. In turn, `CCC(C)(C(=O)NC1CCCC1)N(Cc1cccs1)C(C)=O` (stereo not drawn) had a z-score of -0.228. Regarding `COc1ccc(CCNCc2csc3nc4ccccc4n23)cc1OC`, the z-score is -0.105. Turning to `CC(C)(C)c1nnc(N/N=C/c2ccccc2)n(N)c1=O`, the z-score worked out at 2.74.

The compound `C=CCn1c(C)cc(C(=O)CSc2nnc(Cc3ccccc3)o2)c1C` displayed a z-score of -0.617.

`Cn1c(Cl)c(C(=O)Nc2ccccc2)c2ccccc21` registered a z-score of 0.181. Turning to `Cc1ccccc1N(CC(=O)N/N=C/c1ccc(F)cc1)C(=O)c1ccccc1`, the z-score is -0.215. `Cc1ccc(Sc2ccc(NC(=O)CCl)cc2)c(C)c1` came in with a z-score of 0.511. Turning to `CCc1ccc(NC(=O)N(Cc2cccnc2)Cc2ccco2)cc1`, the z-score is -0.111. Under `O=C(Nc1nc2c(s1)CCCC2)c1cc2n(n1)C(C(F)(F)F)CC(C1CC1)N2` (stereo not drawn) stands -0.188; under `O=C(Nc1nnc(-c2ccccc2Cl)o1)c1ccc(S(=O)(=O)N2CCCCCC2)cc1`, active: 13.1; under `Cc1ccc(C(=O)COc2ccccc2N2C(=O)c3ccccc3C2=O)cc1`, 0.000589. With `CCOC(=O)CSc1nc2ccccc2c(=O)n1CCCCCC(=O)NCc1ccco1`, the z-score was -0.403. On to `CCCN(CCC)C(=S)NC(=O)c1ccc(Cl)cc1Cl`, for which the z-score was active: 14.4. Under `CCCSc1nc2c(cnn2-c2ccc(F)cc2)c(=O)[nH]1` stands -1.82; under `O=C(CSc1ccc2c(c1)OCCO2)Nc1ccc(Br)cc1`, -0.57. Consider `Cc1ccc(C(C(=O)NC2CCCC2)N(C(=O)c2csnn2)C2CCCC2)o1` (stereo not drawn), for which the z-score is -0.0869. Under `CC(C)NC(=S)N1CCN(S(=O)(=O)c2cccc(C(F)(F)F)c2)CC1` stands -0.0156; under `NC(=O)c1ccc[n+](CC(=O)OCCC23CC4CC(CC(C4)C2)C3)c1`, 0.101; under `CCN1CCN(c2nc(N)c([N+](=O)[O-])c(Nc3ccc(C)cc3)n2)CC1`, 0.102. Compound `CCCCCC(=O)Nc1ccc(N2CCN(C(=O)c3ccccc3)CC2)cc1` gave a z-score of -0.421. Compound `Clc1ccc(OCCn2ccnc2)c2ccccc12` registered a z-score of 0.847. `Nc1nnnn1/N=C\c1ccc(Cl)c([N+](=O)[O-])c1`: the z-score is -0.138. Regarding `Cc1n(CC(O)COCc2ccccc2)c2ccccc2[n+]1C` (stereo not drawn), the z-score is -0.0583. Compound `COc1cccc(CNCCc2c[nH]c3ccccc23)c1OCc1ccc(F)cc1` displayed a z-score of 2.04. The value for `CC(=O)Nc1c2c(nn1-c1cccc(Cl)c1)CS(=O)C2` (stereo not drawn) was -0.47; that for `COc1ccc(N2C(N)=NC(N)=NC23CCCC3)cc1` was 0.43.

Take `OC(COCC1COc2ccccc2O1)CN1CCN(c2ccc(F)cc2)CC1` (stereo not drawn): the z-score is -0.297. For the compound `O=C(Cn1cnc2ccccc2c1=O)Nc1ccc2c(c1)OCCO2`, the z-score turned out to be 0.113.

For `COc1cccc(-n2c(CNc3ccc(F)cc3)nnc2SCC(N)=O)c1`, the z-score was found to be 0.531. Compound `CCc1ccc(-c2csc(NC(=O)COC(=O)CCc3nc4ccccc4s3)n2)cc1` had a z-score of -0.0493. In turn, `Cc1cc(C)c2c(n1)nn1c(NCCCN(C)C)cc(C)nc21` gave a z-score of -0.235. In the case of `N#Cc1c(C(F)(F)F)cc(-c2ccccc2)nc1SCCN1CCOCC1`, the z-score was -0.199. For `Cc1ccc(S(=O)(=O)N2CCN(C)CC2)cc1[N+](=O)[O-]`, the z-score was -0.0804.

As to `COc1ccc(-n2c(=S)[nH]c3sc4c(c3c2=O)CCc2ccccc2-4)cc1`, the z-score amounted to 0.114.

Consider `Cc1cccc(CSc2nnc(-c3cccs3)n2Cc2ccco2)c1`, for which the z-score is -0.616.

`O=c1cc(-c2ccco2)oc2c1ccc1ccccc12` came in with a z-score of -0.164.

Regarding `COc1cc(CCC(=O)Oc2ccc(C(C)=O)cc2)cc(OC)c1OC`, the z-score was -0.72. For `COc1ccc(-c2noc(CSc3ccccc3)n2)cc1OC`, the z-score was -0.00887. The compound `CC(C)C(=O)NS(=O)(=O)c1ccc(N)cc1` registered a z-score of -0.197. For `CC1CN(C(=O)c2ccncc2)CC(C)O1` (stereo not drawn), the z-score came to 0.0444. For the compound `COc1ccc(-c2nc3cc(NC(=S)NC(=O)Cc4ccccc4)ccc3o2)cc1`, the z-score turned out to be 0.594. `O=C(Nc1ccc(F)cc1)NC1(C(=O)NCc2ccc3c(c2)OCO3)CCCCC1` yielded a z-score of -0.542.

The compound `COC(=O)COc1ccc(/C=C2/SC(=O)N(CC(=O)N3CCCC3)C2=O)cc1Br` had a z-score of -0.164. The value for `O=C(O)c1ccc(CNCc2ccccc2Cl)cc1` was -0.244; that for `COc1ccc(-c2nc(CSCC(=O)N3CCc4ccccc43)c(C)o2)cc1OC` was -0.471.
